# Measured values published in PubChem BioAssay (Tox21).
# Where “and” joins values, the source holds several entries; their conditions need not be identical. Identical values can stand only once. This list was built around the results that the source calls inconclusive (neither active nor inactive); the mix of calls is not that of the screen. For some assays here: Potencies beside an inconclusive call are fits to weak or partial responses and may not hold up. Calls of active or inactive are those of the source. Unless noted, calls follow the shape of the full dose curve.
# Assays:
# [1] = qHTS assay to identify small molecule antagonists of the peroxisome proliferator-activated receptor gamma (PPARg) signaling pathway - cell viability counter screen (AID 743194; active = well fitted curve in the direction sought with a large enough effect in the repeat runs; inconclusive = weak or mixed curves; inactive = no such curve, though single readings can be large; an effect the other way counts as inactive or inconclusive; also: potency is read from the fitted curve at half-maximal effect; nearly all actives have a fitted effect of over 55% in size); conditions: PPARg-bla HEK293H viability, CellTiter-Glo luminescence, 17 h; Potency: co-treated with 50 nM rosiglitazone unless noted; activity change, negative = cytotoxicity: at 62.6 µM (top of the series), co-treated with 50 nM rosiglitazone unless noted
# In short: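 PPARg-UAS-bla HEK293H cells were plated, rested 5 h at 37 C, then treated with compounds plus rosiglitazone (50 nM final) for 17 h at 37 C; viability was then read by CellTiter-Glo luminescence after 30 min at room temperature.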
# [2] = qHTS assay for small molecule agonists of the antioxidant response element (ARE) signaling pathway (AID 743202; active = well fitted activation curve with a large enough effect in the signal ratio in the repeat runs, not every such curve was filed as active; inconclusive = weak or mixed curves, or effect the other way; inactive = no such curve, though single readings can be large or run the other way; the % refers to the signal ratio; also: potency is read from the fitted curve at half-maximal effect); conditions: HepG2 ARE-bla reporter, beta-lactamase FRET, 16 h; activation: at 73.3 µM (top of the series) unless noted
# In short: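 Steps: seed ARE-bla HepG2 cells (2,000/well); incubate 5 h at 37 C; add compounds by pin tool; incubate 16 h at 37 C; add FRET substrate; read fluorescence after 2 h at RT.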
# [3] = qHTS assay for small molecule agonists of the antioxidant response element (ARE) signaling pathway - cell viability counter screen (AID 743203); also: potency is read from the fitted curve at half-maximal effect; nearly all actives have a fitted effect of over 55% in size
# In short: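 Luminescence read-out (CellTiter-Glo, 30 min at room temperature) measured cell viability in the same wells as the ARE beta-lactamase reporter. HepG2 ARE-bla cells were treated with compounds for 16 hrs at 37C/5% CO2.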
# [4] = qHTS assay for small molecule activators of the heat shock response signaling pathway (AID 743210; active = well fitted activation curve with a large enough effect in the signal ratio in the repeat runs, with a control signal flat, not every such curve was filed as active; inconclusive = weak or mixed curves; the % refers to the signal ratio; also: potency is read from the fitted curve at half-maximal effect); conditions: HeLa HSE-bla reporter, beta-lactamase ratio, 5 h; activation: at 62.6 µM (top of the series)
# In short: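 Activation of heat shock element-controlled beta-lactamase expression is measured in HeLa cells by LiveBLAzer FRET fluorescence, with compound exposure lasting 5 h at 37 C and substrate loading 2.5 h at room temperature.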
# [5] = qHTS assay to identify small molecule agonists of the farnesoid-X-receptor (FXR) signaling pathway - cell viability counter screen (AID 743218; active = well fitted curve in the direction sought with a large enough effect in the repeat runs; inconclusive = weak or mixed curves; inactive = no such curve, though single readings can be large; an effect the other way counts as inactive or inconclusive; also: potency is read from the fitted curve at half-maximal effect; nearly all actives have a fitted effect of over 45% in size); conditions: FXR-bla HEK293T viability, CellTiter-Glo luminescence, 16 h; viability change, negative = cytotoxic: at 62.6 µM (top of the series) unless noted
# In short: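 Luminescence from CellTiter-Glo, read after 30 min at RT, reports viability of GeneBLAzer FXR-UAS-bla HEK 293T cells treated 16 h with compounds in the wells used for the beta-lactamase reporter.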
# [6] = molecular target: Vitamin D3 receptor (Homo sapiens) (UniProt P11473); experiment: qHTS assay to identify small molecule antagonists of the vitamin D receptor (VDR) signaling pathway (AID 743223; active = well fitted inhibition curve with a large enough effect in the signal ratio in the repeat runs, not every such curve was filed as active; inconclusive = weak or mixed curves, or effect the other way; inactive = no such curve, though single readings can be large or run the other way; the % refers to the signal ratio; also: potency is read from the fitted curve at half-maximal effect; as to activity change, negative = inhibition: % is scaled to controls: 0 for no effect and ±100 for the full control effect); conditions: VDR-UAS-bla HEK293T, beta-lactamase FRET ratio, 16 h; activity change, negative = inhibition: at 61 µM (top of the series) unless noted
# In short: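 After VDR-bla cells are plated and left 4 h at 37C, DMSO-dissolved compounds and 3 nM (final) calcitriol agonist are added. Incubation continues 16 h at 37C; FRET beta-lactamase substrate then develops 2 h at room temperature.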
# [7] = qHTS assay to identify small molecule antagonists of the vitamin D receptor (VDR) signaling pathway - cell viability counter screen (AID 743225; active = well fitted curve in the direction sought with a large enough effect in the repeat runs; inconclusive = weak or mixed curves; inactive = no such curve, though single readings can be large; an effect the other way counts as inactive or inconclusive; also: nearly all actives have a fitted effect of over 50% in size; also: potency is read from the fitted curve at half-maximal effect; as to viability change, negative = cytotoxic: % is scaled to controls: 0 for no effect and ±100 for the full control effect); conditions: VDR-bla HEK293T viability, CellTiter-Glo luminescence, 16 h; viability change, negative = cytotoxic: at 61 µM (top of the series) unless noted
# In short: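 Cytotoxicity toward the VDR-bla HEK 293T line was scored by ATP-based CellTiter-Glo luminescence, read in the wells already used for the beta-lactamase readout after 16 h compound treatment under 3 nM 1-alpha,25-dihydroxyvitamin D3 stimulation.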
# [8] = qHTS assay to identify small molecule agonists of the NFkB signaling pathway - cell viability counter screen (AID 1159515); also: nearly all actives have a fitted effect of over 55% in size; also: potency is read from the fitted curve at half-maximal effect
# In short: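 ME-180 NFkB-bla cells, 2,000/well; overnight attach; compound 5 hr, 37 C/5% CO2; LiveBLAzer substrate 1.5 hr RT; then CellTiter-Glo in same wells, 30 min RT, luminescence read.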
# [9] = qHTS assay to identify small molecule agonists of the endoplasmic reticulum stress response signaling pathway (AID 1159516; active = well fitted activation curve with a large enough effect in the signal ratio in the repeat runs, not every such curve was filed as active; inconclusive = weak or mixed curves, or effect the other way; the % refers to the signal ratio; also: potency is read from the fitted curve at half-maximal effect); conditions: ESRE-bla HeLa, ER stress beta-lactamase reporter, 5 h; activation: at 61 µM (top of the series) unless noted
# In short: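 HeLa ESRE-bla reporter line; cpd 5 h, 37 C/5% CO2; LiveBLAzer B/G FRET substrate 2 h RT; ex 405, em 460/530 nm.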
# [10] = qHTS assay to identify small molecule agonists of the vitamin D receptor (VDR) signaling pathway - cell viability counter screen (AID 743224; active = well fitted curve in the direction sought with a large enough effect in the repeat runs; inconclusive = weak or mixed curves; inactive = no such curve, though single readings can be large; an effect the other way counts as inactive or inconclusive; also: potency is read from the fitted curve at half-maximal effect; nearly all actives have a fitted effect of over 50% in size)
# In short: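 Cytotoxicity counter screen: VDR-bla cells, 16 h compound exposure at 37C, 5% CO2; CellTiter-Glo luminescence, 30 min RT, same wells as bla read.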
# [11] = molecular target: Peroxisome proliferator-activated receptor gamma (Homo sapiens) (UniProt P37231); experiment: qHTS assay to identify small molecule antagonists of the peroxisome proliferator-activated receptor gamma (PPARg) signaling pathway (AID 743191); conditions: HEK293H PPARg-UAS-bla, beta-lactamase ratio, antagonist, 17 h; ratio activity, negative = inhibition: at 62.6 µM (top of the series) unless noted; also: nearly all actives have a fitted effect of over 30% in size; also: potency is read from the fitted curve at half-maximal effect
# In short: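 GeneBLAzer PPARg UAS-bla HEK293H cells carrying a UAS-driven beta-lactamase reporter were plated at 3000 cells/well, preincubated 5 h at 37C, then given compound for 17 h at 37C; LiveBLAzer B/G FRET substrate was read after 1 h at room temperature.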
# [12] = molecular target: Bile acid receptor (Homo sapiens) (UniProt Q96RI1); experiment: qHTS assay to identify small molecule agonists of the farnesoid-X-receptor (FXR) signaling pathway (AID 743220; active = well fitted activation curve with a large enough effect in the signal ratio in the repeat runs, not every such curve was filed as active; inconclusive = weak or mixed curves, or effect the other way; the % refers to the signal ratio; also: potency is read from the fitted curve at half-maximal effect); conditions: HEK293T FXR-UAS-bla, beta-lactamase FRET ratio, 16 h; activation: at 62.6 µM (top of the series) unless noted
# In short: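 FXR-UAS-bla HEK 293T cells carrying a UAS-driven beta-lactamase reporter were plated for 5 h at 37C/5% CO2, then exposed to DMSO-dissolved Tox21 10K compounds for 16 h at 37C. A LiveBLAzer B/G FRET substrate was loaded for 2 h at room temperature before fluorescence reading.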
# [13] = qHTS assay to identify small molecule agonists of the peroxisome proliferator-activated receptor delta (PPARd) signaling pathway - cell viability counter screen (AID 743211; active = well fitted curve in the direction sought with a large enough effect in the repeat runs; inconclusive = weak or mixed curves; inactive = no such curve, though single readings can be large; an effect the other way counts as inactive or inconclusive; also: potency is read from the fitted curve at half-maximal effect; nearly all actives have a fitted effect of over 55% in size); conditions: PPARd-bla HEK293H viability, CellTiter-Glo luminescence, 17 h; activity change, negative = cytotoxicity: at 62.6 µM (top of the series) unless noted
# In short: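 Multiplexed format: after the 2 h room-temperature LiveBLAzer B/G FRET step, CellTiter-Glo was added to the same wells. Luminescence after 30 min gave cell viability; compound exposure was 17 h at 37C.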
# [14] = molecular target: Peroxisome proliferator-activated receptor delta (Homo sapiens) (UniProt Q03181); experiment: qHTS assay to identify small molecule agonists of the peroxisome proliferator-activated receptor delta (PPARd) signaling pathway (AID 743212); conditions: HEK293H PPARd-UAS-bla, beta-lactamase FRET ratio, 17 h; activation: at 62.6 µM (top of the series) unless noted; also: % is scaled to controls: 0 for no effect and ±100 for the full control effect
# In short: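 Cells expressing a UAS-driven beta-lactamase reporter (PPARd-bla HEK293H) were given test compounds after a 5 h settle and kept at 37 C. Reporter activity was then measured as FRET fluorescence using LiveBLAzer B/G substrate.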
# [15] = molecular target: Vitamin D3 receptor (Homo sapiens) (UniProt P11473); experiment: qHTS assay to identify small molecule agonists of the vitamin D receptor (VDR) signaling pathway (AID 743222); conditions: HEK293T VDR-UAS-bla, beta-lactamase FRET ratio, 16 h; activation: at 63.5 µM (top of the series) unless noted; also: % is scaled to controls: 0 for no effect and ±100 for the full control effect
# In short: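 Beta-lactamase reporter readout (LiveBLAzer B/G FRET, 2 h RT) in VDR-bla cells after 16 h compound treatment at 37C, 5% CO2; cells pre-incubated 4 h before pin transfer of DMSO solutions.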
# Tags tell the direction and shape of the fitted curve or compound fluorescence and quenching.
# Chain of UniProt P11473 (P11473 whole entry, looked up): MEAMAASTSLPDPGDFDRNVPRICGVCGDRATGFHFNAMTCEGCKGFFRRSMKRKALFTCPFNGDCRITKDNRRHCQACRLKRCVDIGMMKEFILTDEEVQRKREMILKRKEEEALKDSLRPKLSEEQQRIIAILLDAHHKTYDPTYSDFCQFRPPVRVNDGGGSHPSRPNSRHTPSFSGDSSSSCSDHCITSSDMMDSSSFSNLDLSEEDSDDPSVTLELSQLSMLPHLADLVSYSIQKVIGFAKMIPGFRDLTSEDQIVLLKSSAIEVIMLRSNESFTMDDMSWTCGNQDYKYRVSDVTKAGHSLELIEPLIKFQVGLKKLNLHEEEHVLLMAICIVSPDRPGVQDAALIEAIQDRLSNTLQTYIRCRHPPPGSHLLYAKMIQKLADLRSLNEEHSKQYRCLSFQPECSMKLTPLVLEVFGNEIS
# Chain of UniProt Q96RI1 (Q96RI1 whole entry, looked up): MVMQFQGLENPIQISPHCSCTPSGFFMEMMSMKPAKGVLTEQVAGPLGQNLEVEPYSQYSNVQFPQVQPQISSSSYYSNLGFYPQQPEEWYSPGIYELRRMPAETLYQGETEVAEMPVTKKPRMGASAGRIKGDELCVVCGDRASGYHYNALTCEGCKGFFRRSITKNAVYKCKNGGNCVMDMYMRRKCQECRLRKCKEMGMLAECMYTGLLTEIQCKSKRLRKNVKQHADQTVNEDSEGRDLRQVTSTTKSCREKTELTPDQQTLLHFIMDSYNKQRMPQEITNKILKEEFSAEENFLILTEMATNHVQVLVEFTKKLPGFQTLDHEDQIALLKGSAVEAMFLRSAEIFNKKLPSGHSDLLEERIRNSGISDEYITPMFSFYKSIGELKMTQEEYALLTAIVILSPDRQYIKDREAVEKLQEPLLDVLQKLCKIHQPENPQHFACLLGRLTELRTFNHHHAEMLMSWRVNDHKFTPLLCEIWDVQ
# Chain of UniProt P37231 (P37231 whole entry, looked up): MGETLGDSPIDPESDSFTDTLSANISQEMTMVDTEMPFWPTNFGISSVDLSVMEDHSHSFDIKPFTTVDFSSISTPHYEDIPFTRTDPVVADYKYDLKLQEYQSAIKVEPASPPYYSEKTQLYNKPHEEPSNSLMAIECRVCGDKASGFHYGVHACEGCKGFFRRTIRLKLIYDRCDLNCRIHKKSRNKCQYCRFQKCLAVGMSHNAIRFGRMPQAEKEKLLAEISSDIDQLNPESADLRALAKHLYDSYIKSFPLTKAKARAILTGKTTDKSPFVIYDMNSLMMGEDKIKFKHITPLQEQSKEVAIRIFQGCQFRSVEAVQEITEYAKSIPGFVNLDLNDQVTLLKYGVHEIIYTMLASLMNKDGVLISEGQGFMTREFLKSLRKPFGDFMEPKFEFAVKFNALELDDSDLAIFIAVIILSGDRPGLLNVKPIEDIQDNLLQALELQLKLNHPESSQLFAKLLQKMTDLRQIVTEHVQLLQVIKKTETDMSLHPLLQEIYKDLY
# Chain of UniProt Q03181 (Q03181 whole entry, looked up): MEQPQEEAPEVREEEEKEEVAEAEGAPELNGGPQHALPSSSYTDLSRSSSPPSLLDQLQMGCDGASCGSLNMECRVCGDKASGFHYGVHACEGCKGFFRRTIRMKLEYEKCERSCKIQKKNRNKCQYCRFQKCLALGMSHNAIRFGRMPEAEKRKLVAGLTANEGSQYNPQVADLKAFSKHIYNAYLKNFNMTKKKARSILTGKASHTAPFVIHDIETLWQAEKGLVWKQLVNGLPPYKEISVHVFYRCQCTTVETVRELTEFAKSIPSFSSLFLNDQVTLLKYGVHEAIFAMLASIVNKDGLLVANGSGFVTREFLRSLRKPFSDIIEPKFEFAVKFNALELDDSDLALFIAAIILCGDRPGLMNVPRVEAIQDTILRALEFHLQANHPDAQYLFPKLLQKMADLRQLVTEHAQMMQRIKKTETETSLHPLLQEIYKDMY
smiles,measurement,setting,value
Clc1ccc(CO/N=C(\Cn2ccnc2)c2ccc(Cl)cc2Cl)c(Cl)c1,Potency,[1],inconclusive: 33.5 µM [cytotoxic]
same,Potency,[2],inconclusive: 33.5 µM
same,Potency,[3],"inconclusive: 33.5 µM [cytotoxic, single point]"
same,Potency,[4],inconclusive: 25.6 µM
same,Potency,[5],"inconclusive: 33.5 µM [cytotoxic, single point]"
same,"activity change, negative = inhibition",[6],inconclusive: -38.6%
same,Potency,[7],"inconclusive: 21.3 µM [cytotoxic, partial curve]"
same,Potency,[8],inconclusive: 26.8 µM [cytotoxic]
same,Potency,[9],"inconclusive: 10.7 µM [cytotoxic, partial curve]"
CCN,Potency,[10],"inconclusive: 22 µM [rising, partial curve, poor fit]"
same,Potency,[7],inactive
same,Potency,[8],"inconclusive: 55.3 µM [rising, partial curve, poor fit]"
same,Potency,[9],inactive
CC(C)C1(C)N=C(c2nc3ccccc3cc2C(=O)O)NC1=O (centres undefined),"ratio activity, negative = inhibition",[11],inconclusive: 25.5%
same,Potency,[1],"inconclusive: 6.97 µM [rising, partial curve, poor fit]"
same,Potency,[12],inactive
same,Potency,[8],inactive
O=C(O)COc1cc(Cl)c(Cl)cc1Cl,Potency,[11],"inconclusive: 43.6 µM [inhibitor, partial curve, poor fit]"
same,"ratio activity, negative = inhibition",[11],inconclusive: -63.7%
same,Potency,[2],"inconclusive: 30.7 µM [rising, partial curve]"
same,activation,[2],inconclusive: 22.4%
same,Potency,[13],"inconclusive: 0.174 µM [cytotoxic, full curve, poor fit]"
same,activation,[14],inconclusive: 7.68% and inconclusive: 4.97%
same,Potency,[12],"inconclusive: 21.9 µM [rising, partial curve, poor fit]"
same,activation,[15],inconclusive: -5.33%
same,Potency,[6],"inconclusive: 5.49 µM [activator, full curve, poor fit]"
same,Potency,[10],"inconclusive: 11 µM [cytotoxic, full curve]"
same,Potency,[7],"inconclusive: 0.049 µM [cytotoxic, full curve, poor fit]"
same,Potency,[8],"inconclusive: 21.9 µM [cytotoxic, partial curve, poor fit]"
